Measured values: article PMC4709122 (Nature structural & molecular biology, 2015)

Target: UBC9 (human SUMO E2, untagged) (human, UniProt P63279)
Sequence of UniProt P63279 (P63279 whole entry): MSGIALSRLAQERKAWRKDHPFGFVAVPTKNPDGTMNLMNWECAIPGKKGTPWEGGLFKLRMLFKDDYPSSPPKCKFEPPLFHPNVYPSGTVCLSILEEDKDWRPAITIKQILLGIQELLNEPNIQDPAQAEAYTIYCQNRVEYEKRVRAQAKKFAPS

B1: SUMO2 (construct not stated for this experiment) (natural protein)
chain: not shown
**Q.** Which Kd does the source give for B1 here?
**A.** 140 nM
